Test results published in PubChem BioAssay AID624417 (National Center for Advancing Translational Sciences (NCATS), 2012).
In all, about 410,000 compounds went through this assay and about 6,400 (1.6%) were called active. Inconclusive means that the source gave no clear call. Such entries were picked first, then a sample of the others. The call rests on the fitted dose curve; in most records, active means well fitted inhibition curve with a large enough effect; inconclusive means small, poorly fitted or top-dose-only effect; inactive means no such curve, though single readings can be large or run the other way. No potency is given beside an inconclusive call; the fits are too rough.

Target: Glucagon-like peptide 1 receptor (Homo sapiens) (UniProt P43220)
Chain of UniProt P43220 (P43220 whole entry, looked up): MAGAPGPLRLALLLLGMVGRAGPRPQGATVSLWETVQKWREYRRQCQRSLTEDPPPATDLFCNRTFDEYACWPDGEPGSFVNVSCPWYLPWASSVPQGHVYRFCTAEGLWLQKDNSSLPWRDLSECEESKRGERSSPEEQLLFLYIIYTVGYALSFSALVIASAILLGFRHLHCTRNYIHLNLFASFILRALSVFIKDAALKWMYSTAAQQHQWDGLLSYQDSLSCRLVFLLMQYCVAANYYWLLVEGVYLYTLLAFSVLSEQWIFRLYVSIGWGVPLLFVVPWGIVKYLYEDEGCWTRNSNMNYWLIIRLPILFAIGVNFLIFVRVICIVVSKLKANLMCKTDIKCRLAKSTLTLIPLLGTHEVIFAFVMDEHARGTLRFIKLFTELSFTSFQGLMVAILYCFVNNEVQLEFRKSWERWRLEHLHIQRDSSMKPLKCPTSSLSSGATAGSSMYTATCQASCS
Assay: qHTS of GLP-1 Receptor Inverse Agonists (Inhibition Mode); further: nearly all actives have a fitted effect of over 55% in size
Conditions: HEK293 GLP-1R CRE-luciferase, luminescence, 24 h, GLP-1R form is constitutively active; series mostly up to 38.3 µM
In short: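 Luminescence readout: a drop in cAMP-driven luciferase signal flags inverse agonism at a constitutively active GLP-1R stably expressed in HEK293. Compound exposure lasted 24 hr at 37 deg C, 5% CO2.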
Potency means the concentration at half of the fitted maximal effect; tags describe the fitted curve by direction and shape.

Row | SMILES | Potency
1 | COc1cccc(COc2ccc(N(C)S(=O)(=O)c3ccccc3)cc2)c1 | inconclusive [inhibitor, single point]
2 | O=S(=O)(c1ccc(Cl)cc1)N1CCC2(CC1)OCCN2S(=O)(=O)c1cccs1 | inconclusive [inhibitor, single point]
3 | COc1cccc(C(C)(O)c2nc(-c3ccc(N(C)C)cc3)cs2)c1 (stereo not drawn) | inconclusive [inhibitor, partial curve, poor fit]
4 | Cc1c(C(=O)NCc2ccc(F)cc2)sc2nc(-c3ccc(F)cc3)cn12 | inconclusive [inhibitor, partial curve, poor fit]
5 | CC(C)(C)c1ccc(-c2nc(NCc3cccnc3)c3ccccc3n2)cc1 | inconclusive [inhibitor, partial curve, poor fit]
6 | CCOC(=O)Cn1c(=O)n(CC2CCCO2)c2nc(-c3ccc(CC)cc3)nc(C(N)=O)c21 (stereo not drawn) | inactive
7 | CCCCOc1ccccc1C1CC(=O)Nc2cc(OC)c(OC)cc21 (stereo not drawn) | inactive
8 | O=C1NC[C@@H](CCCCN2CCN(CCc3ccc(O)cc3)C(=O)C2=O)N(CC2CCCCC2)C1=O | inactive
9 | CCCCN(C)S(=O)(=O)c1ccc(C(=O)Nc2nnc(-c3ccco3)o2)cc1 | inconclusive [inhibitor, single point]
10 | CCCCC(C(=O)OCC)C(N)Cc1ccc(F)cc1 (stereo not drawn) | inconclusive [inhibitor, partial curve, poor fit]
11 | C=CCN1C(=O)C2(OCCCO2)c2cc(CCCC)ccc21 | inconclusive [inhibitor, single point]
12 | COc1ccc(Cl)cc1NC(=O)CN(C)Cc1cccs1 | inconclusive [inhibitor, partial curve, poor fit]
13 | CN(C)N(Cc1ccccc1)C(=O)C(O)(c1ccccc1)c1ccccc1 | active: 12.6 µM
14 | CCCc1nn2c(=O)cc(COC(=O)c3ccco3)nc2s1 | inactive
15 | Clc1ccc(-c2cn3c(n2)-c2ccccc2C3)cc1Cl | inconclusive [inhibitor, partial curve, poor fit]
16 | CCCCCNC(=O)C(c1ccccc1)n1c(=O)c(-c2cc3ccccc3[nH]2)nc2ccccc21 (stereo not drawn) | inconclusive [inhibitor, single point]
17 | Cn1cnc(S(=O)(=O)N2CCN(C(c3ccccc3)c3ccccc3)CC2)c1 | inconclusive [inhibitor, partial curve, poor fit]
18 | COc1ccccc1-n1c(=O)oc2ccc(Cl)cc2c1=O | inconclusive [inhibitor, partial curve, poor fit]
